# From the supplement of paper PMC7826260
# This is one part of the list. The data describe in vitro nicking of single-stranded DNA by Rep domains (1 h at 37 °C, 3 µM enzyme); the outer parts of the 90-letter strands are left off. The score is log2 (uncut reads / reads without enzyme); the lower, the more was cut; hits are not called. The scaling is to total reads; where an enzyme cuts many sequences, the uncut ones exceed 0.
# Legend:
# Assay in all cases: uncleaved DNA left, log2 of reads against the no-enzyme library (log2 ratio); higher = less cleavage (more negative = more Rep cleavage of the k-mer); sequences stand for … in CTCGTCCG…ACCGGAGA
# [1] = tested on: T1, Rep nickase domain of Muscovy duck circovirus
# T1 sequence (protein, residues 1-111, tag omitted): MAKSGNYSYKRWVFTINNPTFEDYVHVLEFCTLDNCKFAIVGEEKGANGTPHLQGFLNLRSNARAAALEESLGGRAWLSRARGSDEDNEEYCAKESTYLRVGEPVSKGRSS
# Procedure: (§1)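 A pool of 90-nt single-stranded DNAs with seven random bases just before the constant AC of the nick site (name = the seven bases) was cut by 3 µM recombinant His6-SUMO-tagged Rep nickase domain (300 nM DNA, 50 mM HEPES pH 8.0, 50 mM NaCl, 1 mM MnCl2, 1 h, 37 °C, three replicates). Uncut DNA was amplified and sequenced.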
# [2] = tested on: T2, Rep nickase domain of banana bunchy top virus
# T2 sequence (protein, residues 1-94, tag omitted): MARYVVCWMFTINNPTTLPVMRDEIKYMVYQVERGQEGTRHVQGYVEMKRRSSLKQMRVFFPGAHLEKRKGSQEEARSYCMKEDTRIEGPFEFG
# Procedure: as §1
# [3] = tested on: T3, Rep nickase domain of cabbage leaf curl virus
# T3 sequence (protein, residues 1-116, tag omitted): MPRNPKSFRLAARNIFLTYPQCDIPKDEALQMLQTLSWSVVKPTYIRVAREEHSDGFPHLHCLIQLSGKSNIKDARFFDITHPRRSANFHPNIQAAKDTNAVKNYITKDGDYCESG
# Procedure: as §1
# [4] = tested on: T4, Rep nickase domain of chickpea chlorotic dwarf virus
# T4 sequence (protein, residues 1-124, tag omitted): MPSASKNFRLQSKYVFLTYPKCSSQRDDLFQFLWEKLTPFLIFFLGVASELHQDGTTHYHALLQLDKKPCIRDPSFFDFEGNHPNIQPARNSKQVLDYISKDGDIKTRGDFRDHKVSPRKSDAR
# Procedure: as §1
# [5] = tested on: T5, Rep nickase domain of faba bean necrotic yellows virus
# T5 sequence (protein, residues 1-98, tag omitted): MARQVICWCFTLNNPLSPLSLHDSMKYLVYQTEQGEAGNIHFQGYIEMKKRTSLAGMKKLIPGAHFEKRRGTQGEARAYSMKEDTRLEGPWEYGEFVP
# Procedure: as §1
# [6] = tested on: T6, Rep nickase domain of maize striate mosaic virus
# T6 sequence (protein, residues 1-117, tag omitted): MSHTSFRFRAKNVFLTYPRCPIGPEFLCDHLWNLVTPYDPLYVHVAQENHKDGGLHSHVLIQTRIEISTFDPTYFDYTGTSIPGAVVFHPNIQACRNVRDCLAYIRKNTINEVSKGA
# Procedure: as §1
# [7] = tested on: T7, Rep nickase domain of porcine circovirus 2
# T7 sequence (protein, residues 2-116, tag omitted): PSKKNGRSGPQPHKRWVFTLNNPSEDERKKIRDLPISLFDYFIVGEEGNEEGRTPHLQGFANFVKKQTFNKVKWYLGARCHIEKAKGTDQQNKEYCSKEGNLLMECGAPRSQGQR
# Procedure: as §1
# [8] = tested on: T8, Rep nickase domain of tomato golden mosaic virus
# T8 sequence (protein, residues 1-124, tag omitted): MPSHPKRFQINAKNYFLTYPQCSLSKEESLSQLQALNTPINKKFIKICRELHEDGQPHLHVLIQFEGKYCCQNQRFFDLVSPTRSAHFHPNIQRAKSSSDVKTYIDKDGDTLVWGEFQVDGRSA
# Procedure: as §1
# [9] = tested on: T9, Rep nickase domain of tomato yellow leaf curl virus
# T9 sequence (protein, residues 1-136, tag omitted): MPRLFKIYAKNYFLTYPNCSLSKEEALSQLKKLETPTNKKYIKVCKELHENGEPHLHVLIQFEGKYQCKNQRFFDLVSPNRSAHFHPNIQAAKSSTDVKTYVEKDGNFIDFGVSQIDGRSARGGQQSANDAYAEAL
# Procedure: as §1
# [10] = tested on: T10, Rep nickase domain of wheat dwarf virus
# T10 sequence (protein, residues 1-137, tag omitted): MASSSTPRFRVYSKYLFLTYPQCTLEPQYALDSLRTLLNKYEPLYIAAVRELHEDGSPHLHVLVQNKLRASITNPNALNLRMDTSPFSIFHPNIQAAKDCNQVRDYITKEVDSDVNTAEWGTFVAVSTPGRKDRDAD
# Procedure: as §1
Sequence,uncleaved DNA left (log2) [1],uncleaved DNA left (log2) [2],uncleaved DNA left (log2) [3],uncleaved DNA left (log2) [4],uncleaved DNA left (log2) [5],uncleaved DNA left (log2) [6],uncleaved DNA left (log2) [7],uncleaved DNA left (log2) [8],uncleaved DNA left (log2) [9],uncleaved DNA left (log2) [10]
GATAATG,0.112,0.0599,-0.0584,0.0913,0.143,-0.514,0.166,0.0946,0.0278,0.0251
TGACGTG,0.277,-0.018,-0.15,0.0177,0.015,-0.166,0.213,0.0328,-0.0596,-0.0682
TAAGGCG,-0.0366,-0.0536,-0.875,0.169,0.0292,-0.915,0.0947,-0.0422,-0.156,-0.224
TTCATAA,0.0787,0.0448,-0.0205,-0.103,-0.0406,-0.247,-0.012,0.103,0.0547,-0.00614
AGTGGAA,0.19,0.0782,0.449,1.2,0.0231,1.42,-0.0606,0.0744,0.0385,0.171
CCCATGT,-0.00685,0.0425,-0.149,-0.407,-0.0602,-1,-0.0364,-0.164,-0.122,-0.0707
AAATTAC,0.0166,0.0989,-1.04,-2.55,0.142,-0.97,0.0351,-0.0266,0.057,-0.113
ACGCAGC,0.0941,-0.0226,-0.518,-0.479,-0.0314,-1.09,0.127,-0.107,-0.121,-0.16
GTTCTCC,0.0195,-0.0202,0.257,0.689,-0.0243,1.58,0.0573,0.0327,0.00319,0.104
CGGCCTT,-0.157,-0.106,0.0279,-0.402,0.0201,0.588,-0.205,-0.167,-0.144,-0.0128
CCGAAGT,0.00367,0.0513,0.127,0.0721,0.113,-0.134,-0.039,0.163,-0.0515,0.044
GCCCGTA,0.152,0.0494,0.263,0.306,0.191,0.0541,0.05,0.0992,0.105,0.113
CACTACC,-0.0911,-0.133,-0.328,-2.35,-0.00945,-0.502,-1.44,-0.0926,-0.00176,-0.0426
GCACTGC,0.0678,-0.102,-0.213,0.0443,-0.0806,-0.476,-0.0129,0.0779,-0.0393,0.0512
GGGATTT,-0.00548,0.168,0.929,2,-0.0768,2.29,0.261,-0.0636,0.124,0.164
GAGCCTC,0.0206,0.112,0.252,0.572,-0.0901,0.948,-0.183,-0.0506,0.082,0.0475
CCCCCAA,-0.306,-0.109,-0.0445,-0.624,-0.148,-0.856,-0.403,0.00152,-0.251,-0.228
GTAATTT,-0.0523,0.134,0.359,0.735,-0.0171,1.8,0.133,0.0553,0.0782,0.09
ACCCCAC,0.0371,-0.0665,-0.244,-0.444,-0.0492,-0.71,-0.043,-0.00179,-0.104,-0.0554
CGGGGAA,0.202,0.0741,0.74,1.38,0.105,2.05,0.201,-0.113,0.0245,0.209

Sequence,uncleaved DNA left (log2) [1],uncleaved DNA left (log2) [2],uncleaved DNA left (log2) [3],uncleaved DNA left (log2) [4],uncleaved DNA left (log2) [5],uncleaved DNA left (log2) [6],uncleaved DNA left (log2) [7],uncleaved DNA left (log2) [8],uncleaved DNA left (log2) [9],uncleaved DNA left (log2) [10]
GACAAGG,0.0382,0.0953,0.294,1.12,0.0448,0.686,0.233,0.223,0.0601,0.012
GGAGTAT,0.0628,0.197,0.645,1.67,0.0312,2.21,0.151,0.103,0.223,0.267
CTAACCG,0.0121,-0.0208,-0.73,-0.983,0.11,-0.883,0.144,-0.0416,-0.0621,-0.128
ACGTGTG,0.00517,-0.0207,-0.842,-0.104,0.0959,-0.864,0.0975,0.0216,0.0604,-0.0782
CACGCAT,0.134,0.00807,-0.363,-2.05,0.0257,-0.704,-0.0371,-0.0124,0.084,-0.0559
AACGATC,0.199,-0.0953,0.0805,0.0313,0.0342,-0.0975,0.0908,-0.0605,-0.126,0.117
GGAAGTA,0.164,0.204,0.69,1.42,0.0393,1.98,0.286,0.0672,0.153,0.214
CAATTCG,0.0866,-0.0562,-0.556,0.934,0.0451,-0.044,0.178,-0.0739,0.0902,-0.00458
AATCACA,0.0929,0.164,-0.0692,-2.58,0.123,-0.639,0.0328,0.104,0.0105,0.146
ATACTCG,-0.0215,0.0642,-0.861,-0.584,0.198,-1.02,0.161,0.0436,-0.0082,0.0129
AGTTACG,0.0456,0.0363,-0.625,-0.545,0.0108,-1.04,0.2,-0.115,0.084,-0.0353
CACGGAA,-0.0509,0.216,0.301,0.749,0.157,0.87,0.175,0.00125,0.114,0.0989
AGGAGAT,0.0257,0.133,0.25,1.78,0.0169,1.82,0.0961,0.168,-0.0875,0.167
AATGCCG,-0.0221,-0.05,-0.862,-0.227,0.0341,-0.968,0.125,-0.0928,-0.0646,-0.127
ATCCACT,-0.0995,-0.111,-0.265,-2.5,-0.166,-0.811,-0.706,-0.0847,-0.0537,-0.0784
TACGCAA,-0.0448,0.0231,-0.151,-1.04,-0.0247,-0.682,0.0373,-0.114,-0.106,0.0806
TTACTTA,0.156,-0.105,0.0686,-1.94,0.139,0.182,-0.0671,0.0955,-0.11,0.00423
TGAGCAT,0.0179,-0.0431,0.351,0.903,0.0286,1.08,0.00435,-0.0294,-0.0138,0.00588
GGTCGTC,0.0974,0.0425,0.513,1.12,-0.0546,1.67,0.0431,-0.017,-0.023,0.0642
TGGCCCT,-0.0128,0.000563,0.418,0.529,-0.0415,1.22,0.0174,-0.0383,-0.0294,0.0422

Sequence,uncleaved DNA left (log2) [1],uncleaved DNA left (log2) [2],uncleaved DNA left (log2) [3],uncleaved DNA left (log2) [4],uncleaved DNA left (log2) [5],uncleaved DNA left (log2) [6],uncleaved DNA left (log2) [7],uncleaved DNA left (log2) [8],uncleaved DNA left (log2) [9],uncleaved DNA left (log2) [10]
TCTCGTG,0.0354,-0.245,-0.652,-0.917,-0.101,-1.21,-0.0115,-0.0569,-0.097,-0.312
TCTAAGG,-0.0569,-0.113,0.409,1.34,-0.03,1.65,0.166,0.034,-0.23,-0.136
GTCTCGG,0.0383,0.121,0.428,1.18,-0.0402,1.91,0.113,0.166,-0.0296,-0.0359
TAAGGAA,0.122,0.134,0.345,1.33,0.122,1.7,0.216,0.202,0.00712,0.104
TAGGGAA,0.0657,0.0403,0.483,1.34,-0.0188,1.71,0.142,0.0591,-0.0205,0.118
CTGAGGG,-0.0375,0.00858,-0.0909,-0.215,0.0744,-0.77,0.231,-0.0283,0.0727,-0.0307
CTAGATT,0.0404,-0.177,-0.00351,-2.11,0.053,-0.233,-1.45,0.0524,0.088,-0.13
TGGGGCG,-0.0159,0.0224,-0.37,0.76,0.0439,-0.204,0.249,0.102,0.0884,-0.000239
GTGCAAT,0.00928,0.174,0.299,1.03,-0.0999,1.78,0.0821,0.0732,0.0986,0.0353
TAGAGAG,0.0936,0.0101,-0.39,-0.51,0.0323,-1.11,0.0473,0.11,0.0173,-0.0337
GGTGGAC,-0.0382,0.0111,0.859,1.95,-0.0318,2.26,0.269,0.0185,0.0518,0.0741
CCGCGTG,0.00378,0.0336,-0.36,-0.429,-0.0694,-0.565,0.239,0.095,0.0028,0.0439
CGCGCAG,-0.168,-0.0254,-0.319,-0.193,-0.0438,-0.398,0.142,0.0459,-0.0312,-0.0656
GGGCGTT,0.0886,0.0157,0.872,1.85,0.119,2.23,0.0925,-0.00266,-0.0263,0.135
TAGGACC,0.144,0.137,0.255,0.866,0.0547,0.682,0.0854,0.0511,0.179,0.187
TAGACGG,0.0166,0.0673,0.332,1.11,0.0784,1.78,0.128,0.053,-0.0325,-0.000274
CATGTAG,0.0652,-0.0922,-0.555,0.362,0.0341,-0.604,0.0169,0.029,0.068,-0.0355
TAGTCCG,0.185,0.00516,-0.756,-0.285,0.0556,-1.05,-0.872,-0.108,-0.0217,-0.0545
GTAGCCA,0.0348,0.128,0.303,0.808,-0.0127,1.41,0.132,0.07,0.0808,0.125
GTGCAAC,-0.0483,0.0706,0.361,0.885,0.0205,1.73,0.0189,0.00333,0.0462,0.173
